# Experimental data reported in patent US9029413B2, “Treatment of viral infections by modulation of host cell metabolic pathways” (The Trustees of Princeton University, priority 2007, dated 2015).
# Columns and labels:
# [1] = system: hepatitis B virus (HBV) ayw strain; assay: Extracellular HBV DNA from HepG2-2.2.15 cells, real-time quantitative PCR; conditions: TOFA 90 μg/mL
# Description: HepG2-2.2.15 is a stable cell line containing the hepatitis B virus (HBV) ayw strain genome that is useful in identifying and characterizing Compounds blocking any step of viral replication, such as, transcription, translation, pregenome encapsidation, reverse transcription, particle assembly and release. In one aspect, Compounds can be added to HepG2-2.2.15 culture to test whether Compound will reduce the production of secreted HBV from cells utilizing real time quantitative PCR (TaqMan) assay to measure HBV DNA copies. […] HBV virion DNA in the culture medium can be assessed 24 hours after the last treatment by quantitative blot hybridization or real time quantitative PCR (TaqMan) assay. […] Intracellular HBV DNA replication intermediates can be assessed by quantitative Southern blot hybridization. […] ELISAs can be used to quantify the amounts of the HBV envelope protein, surface antigen (HBsAg), and secreted e-antigen (HBeAg) released from cultures. […]
# HBV causes serious, life-threatening, chronic disease in humans. […] The medium with the ACC inhibitor is replaced every 24 hours, and media samples are removed after drug treatment for 24, 48, 72 or 96 hours and assayed for the presence of extracellular viral DNA by real-time quantitative PCR. […]
# [2] = system: HCMV; assay: HCMV replication in human fibroblasts with a combination of ACC inhibitor and Cox inhibitor
# Description: Cox inhibitors block the production of prostaglandins, lipid compounds that serve as second messages and elicit a wide range of physiological responses in cells and tissues. A non-limiting example of a rationale for a beneficial antiviral effect of a combination of ACC inhibitor and Cox inhibitor follows from the fact that eicosinoids are synthesized by COX action on arachidonic acid. Arachidonic acid is derived from diet and fatty acid synthesis, and, consequently, its availability is influenced by ACC activity. A non-limiting example of an assay that can be performed to assess the effect of a combination of an ACC inhibitor plus Cox inhibitor on HCMV replication follows. Assays for TOFA-mediated antiviral activity using HCMV-infected human fibroblasts have been described in this document. In each assay, various concentrations of TOFA can be combined with various concentrations of indomethacin and assayed for their effect on virus replication. In one preferred embodiment, a physiological concentration of indomethacin is held constant as the dose of TOFA is increased. Control cultures are treated with no drug, indomethacin alone or the various concentrations of TOFA alone. […] The antiviral effect of indomethacin plus each concentration of TOFA is then compared to the activity of indomethacin alone or the various concentrations of TOFA alone. […]
smiles,measurement,setting,value
"CCCCCCCCCCCCCCOc1ccc(C(=O)O)o1 [TOFA, 5-(tetradecyloxy)-2-furoic acid]",production of extracellular HBV DNA,[1],almost completely blocks production of extracellular HBV DNA
same,concentration of TOFA required to produce a 10-fold reduction in HCMV replication,[2]; in the presence of a pharmacologically acceptable concentration of indomethacin,≤ 5 μg/mL
same,concentration of TOFA required to produce a 10-fold reduction in HCMV replication,[2]; without indomethacin,~10 μg/mL
